According to article PMC12002642:
No constants are given. Whether binding was seen depends on the method and setting. Some binding calls cover weakened binding; strength is not graded here. Tags and fused reporters may be left off the sequences shown.

T1: Pab2 (nuclear poly(A)-binding protein Pab2/PABPN1), full-length, yeast two-hybrid fusion (S. japonicus) (UniProt B6K794)
T1 sequence: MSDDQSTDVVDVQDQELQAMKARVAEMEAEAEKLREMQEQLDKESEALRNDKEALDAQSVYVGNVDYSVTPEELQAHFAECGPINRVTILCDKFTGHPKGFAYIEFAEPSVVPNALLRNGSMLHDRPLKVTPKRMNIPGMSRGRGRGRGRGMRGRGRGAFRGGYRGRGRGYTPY

T2: Rmn1 (RBM26·27 ortholog), full-length, yeast two-hybrid fusion (S. japonicus) (UniProt B6K5G4)
T2 sequence: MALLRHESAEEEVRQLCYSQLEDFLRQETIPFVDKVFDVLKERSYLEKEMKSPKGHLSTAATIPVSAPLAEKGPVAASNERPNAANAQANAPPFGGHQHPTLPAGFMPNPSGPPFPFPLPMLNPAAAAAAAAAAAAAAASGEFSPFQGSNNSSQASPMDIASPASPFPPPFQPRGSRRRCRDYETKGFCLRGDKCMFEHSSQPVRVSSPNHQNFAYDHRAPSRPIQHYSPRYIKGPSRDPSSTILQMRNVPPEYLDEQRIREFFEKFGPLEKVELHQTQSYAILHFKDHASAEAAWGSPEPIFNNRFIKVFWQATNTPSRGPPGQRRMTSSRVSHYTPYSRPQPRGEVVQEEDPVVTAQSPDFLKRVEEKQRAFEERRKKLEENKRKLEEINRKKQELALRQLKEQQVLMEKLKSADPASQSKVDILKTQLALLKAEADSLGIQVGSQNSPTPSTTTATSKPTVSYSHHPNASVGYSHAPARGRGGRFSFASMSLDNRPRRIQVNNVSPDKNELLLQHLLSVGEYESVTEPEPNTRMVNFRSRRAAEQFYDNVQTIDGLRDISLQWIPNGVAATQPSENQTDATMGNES

T3: Ppn1 (PPP1R10 ortholog), full-length, yeast two-hybrid fusion (S. japonicus) (UniProt B6K4E4)
T3 sequence: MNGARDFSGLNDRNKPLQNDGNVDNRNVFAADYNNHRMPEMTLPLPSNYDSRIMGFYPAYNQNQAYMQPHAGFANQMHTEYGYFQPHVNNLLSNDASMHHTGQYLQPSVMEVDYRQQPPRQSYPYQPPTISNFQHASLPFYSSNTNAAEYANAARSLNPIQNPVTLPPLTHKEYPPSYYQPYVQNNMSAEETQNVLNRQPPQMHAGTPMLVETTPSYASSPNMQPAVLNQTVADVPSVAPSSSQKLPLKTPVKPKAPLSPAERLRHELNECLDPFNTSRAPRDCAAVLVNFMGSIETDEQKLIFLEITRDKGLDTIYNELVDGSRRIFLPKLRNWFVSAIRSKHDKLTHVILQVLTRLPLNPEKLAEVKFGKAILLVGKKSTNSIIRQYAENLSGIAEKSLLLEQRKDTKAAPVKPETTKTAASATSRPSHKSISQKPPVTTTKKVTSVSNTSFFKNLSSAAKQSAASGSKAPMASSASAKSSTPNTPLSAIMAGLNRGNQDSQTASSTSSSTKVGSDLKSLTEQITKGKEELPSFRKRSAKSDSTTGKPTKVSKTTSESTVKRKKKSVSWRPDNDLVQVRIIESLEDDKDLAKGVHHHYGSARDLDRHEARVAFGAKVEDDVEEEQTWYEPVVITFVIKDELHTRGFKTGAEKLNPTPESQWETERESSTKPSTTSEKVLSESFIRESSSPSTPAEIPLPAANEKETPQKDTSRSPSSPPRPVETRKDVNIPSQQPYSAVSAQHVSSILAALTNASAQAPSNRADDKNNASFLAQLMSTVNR

T4: Ppn1^(V354A, L355P), yeast two-hybrid fusion (S. japonicus) (UniProt B6K4E4)
T4 sequence: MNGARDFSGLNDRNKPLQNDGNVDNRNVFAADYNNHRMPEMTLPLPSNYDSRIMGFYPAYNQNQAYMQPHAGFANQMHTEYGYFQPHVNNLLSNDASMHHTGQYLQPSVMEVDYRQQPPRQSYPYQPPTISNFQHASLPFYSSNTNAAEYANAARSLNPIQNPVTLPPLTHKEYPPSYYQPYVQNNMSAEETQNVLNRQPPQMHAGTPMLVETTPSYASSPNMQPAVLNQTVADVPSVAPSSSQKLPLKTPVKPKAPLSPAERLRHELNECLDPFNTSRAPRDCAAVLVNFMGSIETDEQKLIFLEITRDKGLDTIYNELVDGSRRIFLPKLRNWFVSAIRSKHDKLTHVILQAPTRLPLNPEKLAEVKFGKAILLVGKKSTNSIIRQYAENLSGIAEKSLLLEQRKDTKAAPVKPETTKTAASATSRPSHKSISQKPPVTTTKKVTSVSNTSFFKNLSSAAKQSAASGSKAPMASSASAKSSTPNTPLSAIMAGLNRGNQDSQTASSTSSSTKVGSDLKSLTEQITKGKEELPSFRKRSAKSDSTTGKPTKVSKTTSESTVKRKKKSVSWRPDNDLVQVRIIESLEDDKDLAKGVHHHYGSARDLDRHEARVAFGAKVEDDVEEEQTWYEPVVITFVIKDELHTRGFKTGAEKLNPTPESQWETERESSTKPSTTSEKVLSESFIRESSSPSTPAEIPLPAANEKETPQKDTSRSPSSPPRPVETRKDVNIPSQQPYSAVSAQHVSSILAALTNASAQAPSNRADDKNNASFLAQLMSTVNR


Experiments:
Assay in all cases: two-hybrid; pGBKT7 and pGADT7 plasmids co-transformed into S. cerevisiae AH109; growth on CM -Leu-Trp-His (medium interaction) and CM -Leu-Trp-His-Ade (strong interaction)
[1] = biological target: T1, Pab2 (nuclear poly(A)-binding protein Pab2/PABPN1), full-length, yeast two-hybrid fusion (S. japonicus)
[2] = biological target: T2, Rmn1 (RBM26·27 ortholog), full-length, yeast two-hybrid fusion (S. japonicus)
[3] = biological target: T3, Ppn1 (PPP1R10 ortholog), full-length, yeast two-hybrid fusion (S. japonicus)
[4] = biological target: T4, Ppn1^(V354A, L355P), yeast two-hybrid fusion (S. japonicus)

binding [1] | binding [2] | binding [3] | binding [4] | Binder
binds weakly | binds | – | – | Red5 (ZC3H3 ortholog), full-length, yeast two-hybrid fusion (protein, UniProt B6JVP1 1-380) MAGTNSEEQKLLEQIASLAGAINKYKYSQEQIHHQSAQKPDGANSTNWRKRKLSHWSTSRNQTLVNNPPPSPSIKGAAAKTQDDVSSMSEDATEASMFVARKDRHMQLIHKSIYEQDAQARQASMETARAKLNEKRKAVAEKKTQQKLTDPNNHLLTIQELPFIINDKDPKFIECMDTLAQLPKHIYHEGRAYVLMNRSMYKFVGTSPYSVYCRYYNMVGYCAKGGKCMYVHDPAHKYVCPRFLSGNCPNGEQCSLSHDRDEKRTPACRYFLKGKCTNPVCRYAHVHYNESVPVCPDFSEYGMCENGLHCKMKHILKCTEYALKGACHNAKCRLYHPPKELESTEKKEGAVSAEKMQGEQKQDSESSSTASGATPIFISL
– | – | no binding | – | Pab2ΔIDR (Pab2 lacking the C-terminal IDR), yeast two-hybrid fusion (domain or fragment, UniProt B6K794 1-135) MSDDQSTDVVDVQDQELQAMKARVAEMEAEAEKLREMQEQLDKESEALRNDKEALDAQSVYVGNVDYSVTPEELQAHFAECGPINRVTILCDKFTGHPKGFAYIEFAEPSVVPNALLRNGSMLHDRPLKVTPKRM
– | – | no binding | – | Clr4 chromodomain (CD, amino acids 1-75), yeast two-hybrid fusion (domain or fragment, UniProt B6K768 1-75) MGARKRVRTAETWDPEEEFEVEKIVDEKLDPKGNVMLYRVRWLNYSSRSDTWEPPSNLVGCTAVLRDWHKKQKRP
no binding | – | – | – | Pla1 (canonical poly(A) polymerase), full-length, yeast two-hybrid fusion (enzyme, UniProt B6K102 1-563) MASKQWGITPPISTAPPTEKENALNTALVNELKAQNLFESAQDSEKRVRVLQELQAITTEFVRKVSLSKHMSEKMASESGGKIFTYGSYRLGVYGPGSDIDTLVVVPKHVSRENFFQDLEPMLRARPEITDLAAVPEAYVPIIKFKFLGISIDLIFARLSIPRVPLDLELSDSNLLKGVEERCILSLNGTRVTDQILQLVPNRAVFKHALRAIKFWAQRRAIYANVVGFPGGVAWAMMVARICQLYPNAVSAVIVSKFFRILSQWNWPQPVLLKPIDDGPLQVRVWNPKLYPSDKAHRMPIITPAYPSMCATHNITPSTQTVILREMARAGLIVDDIMAGKKPWSALFEKHDFFHRYRYYLTVTAASKTADSQLKWSGLVESKLRHFVTRLELVDAITLAHPFNKGFNKIYMCKTEEEAQQVANGVSTAVVAKDANLEEAAKAGDQNEHKEGEGDAADEKKFSVYTTTFYIGLEIERKKGPQSKRLDITWPSQEFSEMCKKWDKFDDTMMTVFIKNTRNYTLPDEVFEPGEERPKPPTKKRIASAEKKTENDQVPKRQKVPQA
– | – | binds | no binding | Pab2 (nuclear poly(A)-binding protein Pab2/PABPN1), full-length, yeast two-hybrid fusion (protein, UniProt B6K794 1-174) MSDDQSTDVVDVQDQELQAMKARVAEMEAEAEKLREMQEQLDKESEALRNDKEALDAQSVYVGNVDYSVTPEELQAHFAECGPINRVTILCDKFTGHPKGFAYIEFAEPSVVPNALLRNGSMLHDRPLKVTPKRMNIPGMSRGRGRGRGRGMRGRGRGAFRGGYRGRGRGYTPY
binds | – | – | – | Rmn1 (RBM26·27 ortholog), full-length, yeast two-hybrid fusion (protein, UniProt B6K5G4 1-589) MALLRHESAEEEVRQLCYSQLEDFLRQETIPFVDKVFDVLKERSYLEKEMKSPKGHLSTAATIPVSAPLAEKGPVAASNERPNAANAQANAPPFGGHQHPTLPAGFMPNPSGPPFPFPLPMLNPAAAAAAAAAAAAAAASGEFSPFQGSNNSSQASPMDIASPASPFPPPFQPRGSRRRCRDYETKGFCLRGDKCMFEHSSQPVRVSSPNHQNFAYDHRAPSRPIQHYSPRYIKGPSRDPSSTILQMRNVPPEYLDEQRIREFFEKFGPLEKVELHQTQSYAILHFKDHASAEAAWGSPEPIFNNRFIKVFWQATNTPSRGPPGQRRMTSSRVSHYTPYSRPQPRGEVVQEEDPVVTAQSPDFLKRVEEKQRAFEERRKKLEENKRKLEEINRKKQELALRQLKEQQVLMEKLKSADPASQSKVDILKTQLALLKAEADSLGIQVGSQNSPTPSTTTATSKPTVSYSHHPNASVGYSHAPARGRGGRFSFASMSLDNRPRRIQVNNVSPDKNELLLQHLLSVGEYESVTEPEPNTRMVNFRSRRAAEQFYDNVQTIDGLRDISLQWIPNGVAATQPSENQTDATMGNES
– | – | binds | – | Clr4 middle domain (M, amino acids 76-220), yeast two-hybrid fusion (domain or fragment, UniProt B6K768 76-220) LPAELLTPEERQNIPKVVKKTSSSPSARTSLGNSTPVARTSKGKQDSRGTSSRRSSTNKHKQKSKRGHDTNDDQEDLYSFFGSTKRPRKTSAEATEIIEIDVEDDNAPDTEIPKADDENTKEDLIVKPPSPLQKQFIIYPVSRPP
– | – | no binding | – | Clr4 SET domain (amino acids 221-518), yeast two-hybrid fusion (domain or fragment, UniProt B6K768 221-518) TRDAYAHFSNYEKRELFRDRLRQLRGPEITLVNEVDDEPCPSLDFQFISEYRLTEGVIPPDPNFQSGCNCPSEGCNLLEPNSCQCLEDMDDPRSFAYDEHGRLRPDSGNVIYECNDFCSCSMDCPNRVVQRGRVLPLEVFKTKDKGWGVRTIRTVKAGTFVTCYLGEVISSHEAAERDKNYEKDGITYLFDLDMFDDASEYTVDAQRYGDVSRFFNHSCSPNLAIYSVVRNRGVRTIYDLAMFSIKDINPMEELTFDYAGIREQVSPVPKEPKQPIRHGKAYRKCRCGAPNCRGWLFS
– | – | no binding | – | NIPGMSRGRGRGRGRGMRGRGRGAFRGGYRGRGRGYTPY (domain or fragment, UniProt B6K794 136-174) [Pab2 C-terminal intrinsically disordered region (IDR) fragment, yeast two-hybrid fusion]
– | binds | binds | no binding | Clr4 (histone H3 Lys9 methyltransferase Clr4/SUV39), full-length, yeast two-hybrid fusion (enzyme, UniProt B6K768 1-518) MGARKRVRTAETWDPEEEFEVEKIVDEKLDPKGNVMLYRVRWLNYSSRSDTWEPPSNLVGCTAVLRDWHKKQKRPLPAELLTPEERQNIPKVVKKTSSSPSARTSLGNSTPVARTSKGKQDSRGTSSRRSSTNKHKQKSKRGHDTNDDQEDLYSFFGSTKRPRKTSAEATEIIEIDVEDDNAPDTEIPKADDENTKEDLIVKPPSPLQKQFIIYPVSRPPTRDAYAHFSNYEKRELFRDRLRQLRGPEITLVNEVDDEPCPSLDFQFISEYRLTEGVIPPDPNFQSGCNCPSEGCNLLEPNSCQCLEDMDDPRSFAYDEHGRLRPDSGNVIYECNDFCSCSMDCPNRVVQRGRVLPLEVFKTKDKGWGVRTIRTVKAGTFVTCYLGEVISSHEAAERDKNYEKDGITYLFDLDMFDDASEYTVDAQRYGDVSRFFNHSCSPNLAIYSVVRNRGVRTIYDLAMFSIKDINPMEELTFDYAGIREQVSPVPKEPKQPIRHGKAYRKCRCGAPNCRGWLFS
